# About 6,500 (4.3%) of roughly 150,000 compounds were called active. The inconclusive results got no clear call from the source; some entries with a clear call stand among them for comparison. The call rests on the fitted dose curve; in most records, active means well fitted inhibition curve with a large enough effect (not every such curve was filed as active); inconclusive means small, poorly fitted or top-dose-only effect, or another doubt; inactive means no such curve, though single readings can be large or run the other way. No potency is given beside an inconclusive call; the fits are too rough.
# Target: 15-hydroxyprostaglandin dehydrogenase [NAD(+)] (Homo sapiens) (UniProt P15428)
# Chain of UniProt P15428 (P15428 whole entry, looked up): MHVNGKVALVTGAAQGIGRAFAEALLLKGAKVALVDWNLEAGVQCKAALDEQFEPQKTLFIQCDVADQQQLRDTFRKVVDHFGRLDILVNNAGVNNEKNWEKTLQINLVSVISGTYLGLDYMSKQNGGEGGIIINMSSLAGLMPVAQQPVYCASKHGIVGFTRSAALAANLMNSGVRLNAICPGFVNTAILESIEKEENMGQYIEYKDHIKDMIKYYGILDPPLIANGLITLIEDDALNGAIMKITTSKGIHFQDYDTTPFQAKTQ
# Assay: qHTS Assay for Inhibitors of HPGD (15-Hydroxyprostaglandin Dehydrogenase)
# Details: purified HPGD, NADH fluorescence kinetic, PGE2 substrate; activity change, negative = inhibition: active compounds read low
# Outline: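 NADH formation kinetics: reaction with 30 uM PGE2 and 1 mM NAD+ (final), 20 nM enzyme, Tris-HCl pH 8 with Tween 20, after 15 min compound preincubation at room temperature. Fluorescence change, last versus first of five reads.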
# On the % scale 0 is the no-effect control and ±100 the full control effect; potency means the concentration at half of the fitted maximal effect; tags describe the fitted curve by direction and shape.
Compound,Potency,"activity change, negative = inhibition"
O=C(Nc1ccccc1)c1sc(N2CCOCC2)nc1-c1ccccc1,"inconclusive [inhibitor, partial curve]",–
COC(=O)c1sc2nc(-c3ccco3)ccc2c1N,"inconclusive [inhibitor, partial curve]",–
CCC1S/C(=N\S(=O)(=O)c2cccs2)N(C2CCCCC2)C1=O (stereo not given),–,inactive: -8.19%
COCCN1C(=O)C(O)=C(C(C)=O)C1c1ccc(F)cc1 (stereo not given),"inconclusive [inhibitor, partial curve]",–
CCOCCn1c(-c2ccc(OC)cc2)nc2ccccc21,–,inactive: -7.97%
C=CCc1cccc([C@@H]2[C@@H](C)CC[C@H]3C(=O)N4[C@@H](c5cc(OC)c(OC)c(OC)c5)c5[nH]c6ccccc6c5C[C@H]4C(=O)N23)c1,–,inactive: -16.1%
Cc1c(O)nc(SCC(=O)Nc2ccc3c4c(cccc24)CC3)n(-c2ccccc2)c1=O,–,inactive: -9.14%
COC(=O)/C(C)=C/CC12OC(C)(C)C3CC(C=C4C(=O)c5cc6c(c(CCC(C)(C)Cl)c5OC431)OC1(C)CCC(=C(C)C)C6C1)C2=O (stereo not given),"inconclusive [inhibitor, partial curve]",–
O=c1[nH]c(C(Cl)Cl)nc2sc3c(c12)CCN(Cc1ccccc1)C3,"inconclusive [inhibitor, single point]",–
C=C(C)C(=O)Nc1nnc(-c2cccs2)s1,"inconclusive [inhibitor, partial curve]",–
N#Cc1c(N)n(CCOC(=O)c2cccc(Br)c2)c2nc3ccccc3nc12,"inconclusive [inhibitor, full curve]",–
O=c1[nH]c2ccccc2n1CCCSCCCn1c(=O)[nH]c2ccccc21,"inconclusive [inhibitor, partial curve]",–
CN(C)S(=O)(=O)c1ccc(C(=O)N2CCC(c3nc4ccccc4o3)CC2)cc1,–,inactive: -6.33%
O=C(COC(=O)/C=C/C(=O)OCC(=O)NC12CC3CC(CC(C3)C1)C2)NC12CC3CC(CC(C3)C1)C2,–,inactive: -17.6%
CC1CCN(c2nnc(N)s2)CC1,"inconclusive [inhibitor, partial curve]",–
COc1cc2oc(=O)cc(-c3cccc(-c4cccc(C)c4)c3)c2c(OC)c1OC,"inconclusive [inhibitor, single point]",–
O=C(CN1CCN(C(=O)c2c(F)cccc2F)CC1)Nc1ccccc1F,–,inactive: -1.72%
Cc1ccccc1NC(=O)CN1C(=O)NC2(CCCCC2)C1=O,–,inactive: -7.64%
COc1ccc(Cc2nn3c(-c4cc(OC)c(OC)c(OC)c4)nnc3s2)cc1,active: 22.4 µM,–
O=C(COc1ccc(/C=N/NC(=O)c2cc3ccccc3o2)cc1Br)Nc1ccccc1,"inconclusive [inhibitor, partial curve]",–
CC1=C(C(=O)Nc2cc(C)ccn2)C(c2ccc(C)cc2)C2=C(CCCC2=O)N1 (stereo not given),"inconclusive [inhibitor, partial curve]",–
O=C(NC1CCCC1)C1=COCCO1,"inconclusive [inhibitor, partial curve]",–
COc1cc(/C=N/NC(=S)NCCN2CCOCC2)cc(OC)c1OC,"inconclusive [inhibitor, partial curve, poor fit]",–
Cc1nn(-c2ccccc2)c(C)c1/C=C/C(=O)OCC(=O)Nc1ncc(C(F)(F)F)cc1Cl,"inconclusive [inhibitor, partial curve]",–

Compound,Potency,"activity change, negative = inhibition"
Cn1c(=O)c2c(nc(NCc3ccccc3)n2Cc2ccc(F)cc2)n(C)c1=O,–,inactive: -20.9%
Cc1cccc(C)c1N1CCN(c2nc(N(C)C)oc(=O)c2C#N)CC1,"inconclusive [inhibitor, partial curve]",–
Clc1ccc(CSc2snnc2-c2ccccc2)c(Cl)c1,"inconclusive [inhibitor, partial curve]",–
COCCNC(=O)CSc1nc(-c2ccccc2)cs1,active: 31.6 µM,–
Cc1ccc2c(c1C)OC(=O)CC2(C)C,"inconclusive [inhibitor, partial curve]",–
COc1ccc(/C=C/c2ccncc2)cc1OC,"inconclusive [inhibitor, partial curve]",–
O=C(Cn1c(=O)n(CCCC(=O)NC2CCCC2)c(=O)c2ccccc21)NCCC1=CCCCC1,"inconclusive [inhibitor, single point]",–
O=[N+]([O-])c1ccc(-n2nncc2-c2ccc(Cl)cc2)cc1,–,inactive: -8.5%
CC1CCCCN1S(=O)(=O)c1ccc(C(=O)Nc2sccc2C(N)=O)cc1 (stereo not given),active: 28.2 µM,–
Cc1ccc(NC(=O)CCNS(=O)(=O)c2ccc3c(c2)oc(=O)n3C)c(C)c1,–,inactive: -1.48%
O=C(NC(=S)Nc1ccc(N2CCOCC2)cc1)c1ccc2c(c1)OCCO2,"inconclusive [inhibitor, single point]",–
CCCCC[C@H](O)C/C=C1/C(=O)C=C[C@@H]1C/C=C\CCCC(=O)O,"inconclusive [inhibitor, partial curve]",–
COc1ccccc1C/C(N)=N/OC(=O)COc1cccc2ccccc12,"inconclusive [inhibitor, partial curve]",–
Cn1c(C(=O)NCC2CCCO2)cc2c(=O)n(C)c3ccccc3c21 (stereo not given),"inconclusive [inhibitor, partial curve]",–
Cn1cccc1C(=O)N1CCC2(CCCN(C(=O)Nc3cccc(F)c3)C2)CC1,–,inactive: -5.07%
CCOc1ccc(C2CC(c3ccc(F)cc3)n3ncnc3N2)cc1 (stereo not given),–,inactive: 2.4%
COC(=O)c1c(NC(=O)CSc2nnc3ccccn23)sc2c1CCC2,–,inactive: -15.8%
Cc1cccc(/C=N\NC(=O)c2csnn2)c1,active: 3.16 µM,–
CCOC(=O)C1=C(C)Nc2nc(=S)[nH]n2C1c1ccc(Cl)cc1 (stereo not given),active: 11.2 µM,–
CCn1c2ccc(/C(C)=N\O)cc2c2cc(/C(C)=N\O)ccc21,active: 2.82 µM,–
O=c1c(CN2CCN(Cc3ccccc3)CC2)coc2ccc(Cl)cc12,–,inactive: -8.39%
N/C(Cc1ccc(Cl)cc1)=N\OC(=O)c1cccc2ccccc12,"inconclusive [inhibitor, partial curve]",–
CCC(C)(C)n1nnnc1CN1CCN(c2nc3cc(OC)ccc3cc2C#N)CC1,"inconclusive [inhibitor, single point]",–
COc1ccc(C(=O)OCn2nnc3ccccc3c2=O)cc1OC,–,inactive: -2.65%

Compound,Potency,"activity change, negative = inhibition"
COc1ccc(NC(=O)CN2CCC3(O)CCCCC3C2c2ccccc2OC)cc1 (stereo not given),–,inactive: -0.375%
N#Cc1ccccc1CSc1ccc(-c2nc3ccccc3[nH]2)cn1,"inconclusive [inhibitor, partial curve]",–
CCc1nc(SCc2ccc(F)cc2)[nH]c(=O)c1C#N,active: 4.47 µM,–
O=C(O)CN1CCN(Cc2ccc(F)cc2Cl)C1=O,"inconclusive [inhibitor, partial curve]",–
O=C(NCC(=O)N(Cc1cccs1)C(C(=O)NC1CCCC1)c1ccncc1)c1ccco1 (stereo not given),–,inactive: -12.4%
CC(=O)CCc1c[nH]c2c(C(=O)O)cccc12,–,inactive: 0.105%
COc1ccccc1NS(=O)(=O)c1cc(NC(=O)c2ccc(=O)[nH]c2)ccc1N1CCOCC1,–,inactive: -2.16%
COc1ccccc1NC(=O)C1=C(C)NC(SCC(=O)c2ccc(C)cc2)=C(C#N)C1c1ccco1 (stereo not given),"inconclusive [inhibitor, partial curve, poor fit]",–
Cc1c(NC(=O)c2cc3nc(-c4ccc(Cl)cc4)cc(C(F)(F)F)n3n2)c(=O)n(-c2ccccc2)n1C,–,inactive: -6.18%
N#CCCn1c(=O)c(-c2cccs2)nc2cnc(OCc3ccccc3)nc21,"inconclusive [inhibitor, full curve]",–
Cc1cc2ccccc2c(=O)n1CC(=O)NCc1ccco1,"inconclusive [inhibitor, partial curve]",–
N#Cc1c2c(c[nH]c1=O)CCN2Cc1ccccc1,"inconclusive [inhibitor, partial curve]",–
COC(=O)c1ccc(NC(=O)CN2C(=O)CSC2=O)cc1,"inconclusive [inhibitor, partial curve]",–
Cc1nc2ccccn2c1P(=O)(N1CCCCC1)N1CCCCC1,"inconclusive [inhibitor, single point]",–
Cc1ccc(-n2nc3c(=S)[nH]nc(C)c3c2C)cc1,–,inactive: -9.52%
CC(C)CC(=O)NC(=S)Nc1ccc(Cl)cn1,"inconclusive [inhibitor, partial curve]",–
COc1ccc(-c2csc(NC(=O)CN3C(=O)CCC3=O)n2)cc1OC,active: 28.2 µM,–
Cc1ccccc1-c1ccc(C(=O)NCc2ccccc2)o1,"inconclusive [inhibitor, single point]",–
O=C(Cc1cccc2ccccc12)Nc1ccccc1C(=O)O,"inconclusive [inhibitor, single point]",–
Cc1ccc(N2C(=O)N(Cc3ccccc3C)c3ccccc3S2(=O)=O)cc1,"inconclusive [inhibitor, single point]",–
CCn1nnc(-c2ccccc2NC(=O)c2cc(OC)c(OC)c(OC)c2)n1,"inconclusive [inhibitor, partial curve]",–
CCn1c(SCC(=O)N2CCCc3ccccc32)nnc1-c1ccco1,–,inactive: -11.2%

# From PubChem BioAssay AID894 (National Center for Advancing Translational Sciences (NCATS), 2007)
